Out of some 310,000 compounds screened, about 18,000 (5.8%) were called active. The shares of active, inactive and inconclusive entries below differ from those in the screen. The call rests on the fitted dose curve; in most records, active means well fitted inhibition curve with a large enough effect; inconclusive means small, poorly fitted or top-dose-only effect, or another doubt; inactive means no such curve, though single readings can be large or run the other way. Potencies of inconclusive entries are left out as doubtful fits.
Assay: Primary qHTS for delayed death inhibitors of the malarial parasite plastid, 48 hour incubation
Settings: P. falciparum luciferase growth in erythrocytes; series mostly up to 28.7 µM; activity change, negative = inhibition: at the top concentration
Method in brief: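 Compounds are pin-transferred into medium, infected erythrocytes (2% hematocrit, 0.1% parasitemia final) are added, and plates sit one parasite generation at 37 C in 5% CO2. Detection reagent is then added and luminescence measured.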
On the % scale 0 is the no-effect control and ±100 the full control effect; potency means the concentration at half of the fitted maximal effect; tags describe the fitted curve by direction and shape.

| SMILES | Potency | activity change, negative = inhibition |
| --- | --- | --- |
| CCn1c(=N)c(C(=O)NCCCOC)cc2c(=O)n3cccc(C)c3nc21 | inconclusive [inhibitor, single point] | – |
| O=C(O)c1ccc(-c2nnc(-c3ccc([N+](=O)[O-])cc3)o2)cc1 | – | inactive: 20.7% |
| CC(C)(CNC(=O)c1cc([N+](=O)[O-])ccc1N1CCC(Cc2ccccc2)CC1)N1CCOCC1 | active: 9.28 µM | – |
| CCCCSc1nnc(-c2cc3c(C(F)(F)F)nn(C)c3s2)n1C | inconclusive [inhibitor, single point] | – |
| CC(=O)Nc1ccccc1OC(C)C(=O)N1CC(C)CC(C)C1 (stereo not drawn) | inconclusive [inhibitor, partial curve, poor fit] | – |
| CC(C(=O)NCc1ccccc1)N(CCN1CCOCC1)C(=O)c1snc(C(N)=O)c1N (stereo not drawn) | inconclusive [inhibitor, single point] | – |
| CS(=O)(=O)c1nc(-c2ccccc2)cc(-c2ccccc2)c1C#N | inconclusive [inhibitor, partial curve] | – |
| O=[N+]([O-])c1cccc(Nc2c([N+](=O)[O-])ccc3nonc23)c1 | – | inactive: -15.1% |
| COc1ccc(C2=NN(C(=O)CSc3nc(=O)n4ccc(C)cc4n3)C(c3ccc(C)cc3)C2)cc1 (stereo not drawn) | active: 9.28 µM | – |
| COC/C=C/C1=CC2=CC(=O)C(C)(OC(=O)c3cnc4ccccc4n3)C(=O)C2=CN1Cc1ccccc1 (stereo not drawn) | inconclusive [inhibitor, single point] | – |
| COc1ccc(-c2nc3ccccn3c2Cl)cc1 | – | inactive: 238% |
| C[C@H](NC(=O)c1[nH]cnc1C(=O)Nc1ccc(CNC(=O)OC(C)(C)C)cc1)C(=O)OC(C)(C)C | active: 13.1 µM | – |
| O=C(CSc1nnc(CCCN2C(=O)c3cccc4cccc(c34)C2=O)n1-c1ccccc1)N1CCN(CCO)CC1 | inconclusive [inhibitor, partial curve, poor fit] | – |
| NS(=O)(=O)c1ccc(CCNC(=O)c2ccc([N+](=O)[O-])s2)cc1 | inconclusive [inhibitor, single point] | – |
| Cc1ccccc1S(=O)(=O)/N=C(/Nc1c(C)n(C)n(-c2ccccc2)c1=O)c1ccccc1 | inconclusive [inhibitor, single point] | – |
| CC(/C=N/NC(=O)c1ccccc1F)=C\c1ccccc1 | – | inactive: 46.3% |
| O=C1C=CC(=O)N1N(c1ccccc1)c1ccccc1 | – | inactive: -10% |
| COc1ccccc1N1CCN(C(=O)CCNS(=O)(=O)c2ccc3c(c2)CCC(=O)N3)CC1 | inconclusive [inhibitor, single point] | – |
